The list shows a part of the results. At the low end of the ranking the order means little.
target: T1, GST-Rok-C97-191 (UniProt O34857); assay: protein binding microarray; conditions: Rok is a gene silencer of Bacillus subtilis; high values mean tight binding; most listed sequences are background and not binding sites; double strand, one strand shown;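 further: rank score from −0.5 (least bound) to 0.5 (best bound)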
T1 sequence: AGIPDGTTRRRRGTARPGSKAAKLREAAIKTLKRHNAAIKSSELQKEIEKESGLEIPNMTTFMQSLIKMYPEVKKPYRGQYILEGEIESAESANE

Sequence	binding signal [E-score]
GCTACGGA	-0.0221
AACTTGCC	-0.00515
GAGATCAA	-0.157
CACGTATC	0.0345
AACTTCTT	-0.0295
ACAAATAG	0.227
ACATCACG	-0.0776
CGGACCCA	-0.267
ATGTCGAA	0.247
CACCTGAG	-0.203
ACATGAAT	0.176
ACGTTAAC	0.124
TCGCCGCA	-0.11
AACCCATC	-0.0678
CCCAAAGC	-0.28
AACTGGTA	0.234
AGTCTTAG	0.0011
CAAATGTC	-0.000768
CTTGAGAA	-0.0606
AGACCAGG	-0.191
AGGTGAAA	-0.0356
CAGTTTAC	-0.0392
GATGGACC	-0.125
CGTCTTAA	-0.115
ATACGAAG	-0.0146

Sequence	binding signal [E-score]
AACTCGTA	0.117
TCGGGTCA	-0.126
GCCTCTAA	-0.142
TACGGGCA	-0.291
AAAGGGCC	-0.318
CCGACGGC	-0.199
AACAAATC	-0.115
AATACTAC	0.383
CAACAATC	0.17
AGGATCAT	-0.0623
GTGCTTCA	-0.138
AAATTAAC	0.306
TAATAGTA	0.423
CCAACGGG	-0.315
ATCTTAAG	0.0123
AGCATATG	0.175
CCTGTACA	0.017
AGGCATAA	0.0458
AATGCGCT	0.166
GTAAGAAA	0.309
CATCGAGA	-0.0556
AGCCGAAT	-0.182
AAATACGA	0.0254
ATTGCGCC	-0.134
CCTTACTA	0.154

Sequence	binding signal [E-score]
CATCGGAC	0.0521
TCAAGTGA	-0.0808
ATAGGCAT	-0.211
CATGGGTA	0.101
AGACGATG	-0.0748
AAGGTGGA	-0.19
ACGAGCTC	-0.262
ACACAATC	-0.0311
TACGGTGA	0.106
TCAAGCCA	-0.14
AGTTTCCA	0.208
GGGAAACA	-0.0425
TCCAGCCA	-0.0215
CAGCTAAA	0.0943
ACGATCAA	-0.0674
ACGCGGAC	-0.14
AGCCCGCT	-0.168
AACACGCC	-0.251
AGTCCACA	-0.159
ATAACAAG	0.041
AGACGTAC	0.0127
CAATGGAG	-0.117
GGTTGCGA	0.017
ACCCGCCA	-0.252
ACCCTCAA	-0.196

Sequence	binding signal [E-score]
CTTTCGAC	-0.176
AAGTTATG	0.276
CGCTGGAA	-0.132
ATGCGCAG	-0.0952
AGTGACTG	0.0386
AACGGCTA	0.0484
CCGCAGAG	-0.0443
AAACCAGC	-0.0922
CATATAAC	0.177
CGAGGAAG	-0.101
GTAAAGAA	-0.0367
CGTAATAC	0.245
TCAACCAA	-0.0448
CGCCTGGC	-0.292
GGGGTTCA	-0.161
ACCGAGTG	0.0374
CCTTTCAG	-0.274
CGGCATTA	0.107
ACGGCCGG	-0.0827
AACGCGCA	-0.0753
ACAGACGG	0.000749
GCTTTTCA	0.0633
CACAATCC	-0.0201
GTCCGAAC	-0.0482
ACAATTGT	0.183

Sequence	binding signal [E-score]
ACTAGGAT	0.211
GCAGGGTA	-0.153
GACGAGCA	-0.242
AGGGGAAA	-0.141
CGACGGTC	-0.0957
CAGCAAAG	-0.231
AACAGTCG	-0.126
AAAATCCT	0.0937
ACCCTAGA	0.0383
CCTCCGGA	-0.16
TAAATGCA	0.289
CTGGATGC	-0.208
CTGGACGC	-0.147
ACAATGGG	-0.0478
GTGCCCAA	-0.21
TACGACGA	0.132
AGCAGCGC	-0.357
AAGAGTAA	0.129
GAGTGGCC	-0.275
CTTCCCTA	0.0507
TCGCATCA	-0.011
AGCTCCCT	-0.00716
ATTTACTC	0.234
GGCTGCAC	-0.191
GCCTAAGC	-0.303

Sequence	binding signal [E-score]
ACGGACGG	-0.218
CCCGGAAG	-0.223
CTCAAAAA	-0.0271
CCAAGATA	0.236
CCAAAGGC	-0.323
CAATCTTA	0.172
ATAACCCC	-0.0751
AGCCCAGA	-0.113
AAGGCGGC	-0.303
CGTTCCGA	-0.149
GGACGAGA	-0.297
AACTGGCA	0.0501
AGGGGATA	-0.103
AGGAGTCA	-0.125
TGATATCA	0.0885
GCGACCCC	-0.347
ATTTCATC	0.153
TCAAAACA	-0.175
GAGAGAAC	0.0649
TACCCGAA	0.0653
GGTCTCTA	0.0453
ACAAAAGC	0.0767
CATCCGAA	-0.234
CCTAGCAC	0.0425
GAATGGCC	-0.0392

Sequence	binding signal [E-score]
CCACGGAA	0.0498
GGGGCGCA	-0.176
GTACATAA	0.328
CTTAAACC	-0.121
ATCGCTTA	0.189
CGGCTTCA	-0.239
CACTCCCA	-0.155
CGTAGTGC	-0.0672
ACGCAAGT	-0.0612
CACTTGCC	-0.249
CCTTCCGC	-0.233
AGGCGCTA	-0.139
GCATTTTA	0.18
ACCGCAAG	-0.109
CATATGTA	0.36
GTATCGAA	0.0967
AAAATCAA	0.128
ATCAGCCA	-0.0137
CAGCAGCA	-0.111
AACATACT	0.0962
ACACAGAG	-0.0594
AGGTTGCG	-0.0431
CCTTGAAG	-0.164
GGTAAAAA	0.379
ACATGTAT	0.225

Sequence	binding signal [E-score]
GGTCCTTA	0.0575
TAACGCCA	-0.113
CCGGATGC	-0.207
CATTACCA	0.171
ATCTGCAC	-0.138
GGCCCCCA	-0.428
CCGGGATC	-0.161
GCCGCCGC	-0.279
CGCTGGTC	-0.152
ACCTTGGA	-0.0509
GTGGAAAA	0.00209
AGGATTTC	-0.0498
TATCTTCA	0.216
CGCCTCGA	-0.0915
ACTGTTTG	0.109
TCAGCGCA	-0.0835
CCGAAATC	-0.0351
ATCTGGAG	-0.162
CAGCCCGC	-0.298
AGGATCTC	0.0324
CTATACTC	0.173
ACGCTCTA	0.138
ATTCCCCA	0.00649
CATCAAAG	0.0174
ACGGCGTA	0.0787

Sequence	binding signal [E-score]
GATTACCC	-0.211
ACGAGGGA	-0.207
CGAGTTTC	0.049
AACTTAGA	0.146
CAGACGCG	-0.319
AGCAGGAT	-0.00135
ATATCCCG	-0.0416
GTGTATAA	0.21
AGGTCTAG	-0.109
GATGTAGC	0.126
CCATAAAG	-0.0985
GTGACCTA	0.00217
CCGCATCC	-0.17
CGTGAGGA	-0.135
CCACGGCG	-0.177
ATTTAGAA	0.127
AACCGCTT	-0.109
AAGCAGAT	0.0834
CCTGAGAG	-0.163

— publication PMC6212790
